Reference: PubChem BioAssay AID1745845 (National Center for Advancing Translational Sciences (NCATS), 2022)
Screen size: about 360,000 compounds; about 2,600 (0.72%) were called active. Inconclusive means that the source gave no clear call. Such entries were picked first, then a sample of the others. The call rests on the fitted dose curve; in most records, active means well fitted inhibition curve with a large enough effect; inconclusive means small, poorly fitted or top-dose-only effect; inactive means no such curve, though single readings can be large or run the other way. Potencies of inconclusive entries are doubtful fits and often do not repeat.

Assay: Primary qHTS for Inhibitors of ATXN expression; further: nearly all actives have a fitted effect of over 55% in size
Conditions: HEK-293 ATXN2-luciferase reporter, luminescence, 24 h; activity change, negative = inhibition: at 57 µM (top of the series)
In short: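 qHTS (up to 57 uM final) was run with 24 h compound exposure of reporter cells at 37 °C. Each well was multiplexed: SteadyGlo luminescence measured ATXN2-luciferase expression after a fluorogenic Gly-Phe-AFC viability readout (25 uM final).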
On the % scale 0 is the no-effect control and ±100 the full control effect; potency means the concentration at half of the fitted maximal effect; tags describe the fitted curve by direction and shape.

Activity change, negative = inhibition, inactive:
CC(=O)Nc1cccc(N2C(=O)CC(N3CCC(C(=O)N4CCCCC4)CC3)C2=O)c1 (stereo unspecified) 4.26%
COCCCn1c(C(=O)Nc2ccc3c(c2)OCO3)cc2c(=O)n3ccccc3nc21 -6.48%
Cn1c(=O)oc2cc(S(=O)(=O)N3CCC(C(=O)N4CCN(c5ccccc5F)CC4)CC3)ccc21 -15.2%
O=C(c1ccco1)N1CCN(C(=O)C(Sc2ccccc2)c2ccccc2)CC1 (stereo unspecified) -6.63%
CC1CC(C)CN(CCCNC(=O)CN2C(=O)CSc3ccc(S(=O)(=O)N4CCOCC4)cc32)C1 (stereo unspecified) 6.04%
Nc1sc2c(c1C(=O)NC1CC1)CCCC2 -10.8%
CCN1CCN(CC(=O)N/N=C/c2ccc(F)cc2F)CC1 -3.51%
C=CCNCCOCCOc1ccc(Cl)cc1C(C)(C)C -37%
O=C(Nc1ccc(N2CCCC2)cc1)C(Cl)c1ccccc1 (stereo unspecified) 10.3%
O=C(COc1ccc(Br)cc1)NCCN1CCCC1 36.8%
COc1ccc(C(=O)Nc2ccccc2C(=O)NCc2cccnc2)cc1OC -0.423%
Cc1ccc(C(=O)Nc2ccc(Oc3ccc(C(=O)O)c(C(=O)O)c3)cc2)cc1C -27.5%
CC(C)COc1ccc(C(=O)OCCN2CCCCC2)cc1 11.5%
CCCCNC(=S)Nc1ccc(Oc2ccccc2)cc1 -10.5%
Cc1ccc(NC(=O)c2nnn(-c3cccc(C(F)(F)F)c3)c2N)cc1 -16%
Cc1ncoc1C(=O)N1CCCC(N2CCN(c3ccccc3F)CC2)C1 (stereo unspecified) -7.17%
COc1cccc(OCCOc2c(OC)cccc2OC)c1 11.5%
O=C(OCC(=O)N1CCOCC1)c1cnc(Cl)c(Cl)c1 7.69%
Cc1ccccc1-c1cc(-c2ccccc2O)n[nH]1 85.3%
COCCn1c(-c2ccc(OC(F)(F)C(F)C(F)(F)F)cc2)nc2c1c(=O)[nH]c(=O)n2CC(C)C (stereo unspecified) -7.25%
O=C(CS(=O)(=O)c1cccc2nsnc12)NCc1ccccc1 6.32%

Potency, inconclusive:
O=C(C[C@@H]1C[C@H]2c3cc(NC(=O)C4CCC4)ccc3O[C@H]2[C@@H](CO)O1)NCc1ccc(-c2ccccc2)cc1 39.8 µM [inhibitor, single point]
OCC1(Cc2cccc(C(F)(F)F)c2)CCN(Cc2cc(F)cc(F)c2)CC1 39.8 µM [inhibitor, single point]
Cc1cc(C)c2c(N)c3ccccc3nc2n1 7.94 µM [inhibitor, partial curve, poor fit]
Cc1cccc(CN2CCN(C3CN(Cc4cn(Cc5cc(C)cc(C)c5)nn4)S(=O)(=O)C3)CC2)c1 (stereo unspecified) 22.4 µM [inhibitor, partial curve, poor fit]
COc1ccccc1NC(=O)COc1ccc(-c2nn(C)c(=O)c3ccccc23)cc1 22.4 µM [inhibitor, single point]
COc1cc(/C=N/NC(=S)Nc2cccc(C(=O)O)c2)ccc1O 5.62 µM [inhibitor, full curve, poor fit]
CC(=O)SC(C[N+](=O)[O-])c1cn(C(C)=O)c2ccccc12 (stereo unspecified) 39.8 µM [inhibitor, single point]
CCCCN1C(=O)C(O)(CC(=O)c2ccc(C)cc2C)c2cc(Br)ccc21 (stereo unspecified) 25.1 µM [inhibitor, single point]
O=C(CSc1ccc(C(F)(F)F)cc1[N+](=O)[O-])Nc1ccc2ccccc2c1 39.8 µM [inhibitor, single point]
CCOC(=O)C1CCN(c2ncnc3c2cnn3-c2ccc(Cl)cc2)CC1 2.24 µM [inhibitor, full curve]
COc1ccc(-n2c(-c3ccc(Br)cc3)c[n+]3c2CCc2ccccc2-3)cc1 10 µM [inhibitor, partial curve, poor fit]
Cc1cccc(S(=O)(=O)c2c(N)n(Cc3ccco3)c3nc4ccccc4nc23)c1 39.8 µM [inhibitor, partial curve, poor fit]
Cc1ccc(C)c(N2CCN(C(=O)CCCOc3cc(=O)n(C)c4ccccc34)CC2)c1 39.8 µM [inhibitor, single point]
Cc1nc2cc(NC(=O)c3ccc(S(=O)(=O)N(C)c4ccccc4)cc3)ccc2o1 39.8 µM [inhibitor, single point]
COC(=O)c1c(-n2c(C)cc(C=O)c2C)sc2c1CCCC2 28.2 µM [inhibitor, single point]
Cc1cc(C)cc(SCc2noc(C(=O)NCCN(C)C)c2C(=O)NCCN(C)C)c1 14.1 µM [inhibitor, partial curve, poor fit]
Cc1cc(CNCCN(C)C)c(C)n1-c1cc(S(=O)(=O)N2CCOCC2)ccc1N1CCCC1 39.8 µM [inhibitor, partial curve, poor fit]
NC(c1ccccc1)c1csc(Nc2ccccn2)n1 (stereo unspecified) 39.8 µM [inhibitor, single point]
Cc1cc(NCCCCCCCNc2cc(C)nc3cc([N+](=O)[O-])ccc23)c2ccc([N+](=O)[O-])cc2n1 16.8 µM [inhibitor, partial curve, poor fit]
Cc1ccc(-c2ccccc2NC(=O)CS(=O)CC(=O)Nc2ccc(C)c(Cl)c2)o1 (stereo unspecified) 2.24 µM [inhibitor, full curve]
COc1ccc(N(Cc2ccccc2)C(=O)CSc2nnc(Cn3nnc4ccccc43)o2)cc1 39.8 µM [inhibitor, partial curve, poor fit]
CC(C)(C)OC(=O)N1CCCC(C(=O)Nc2cccc(C(=O)NCCCCc3ccccc3)c2)C1 (stereo unspecified) 39.8 µM [inhibitor, single point]

Potency, active:
Cc1ccc2[nH]c(=O)c3cc(C(=O)NCCCN4CCC(C)CC4)sc3c2c1 28.2 µM
COC[C@H](NC(=O)c1cnc(C)s1)C(=O)N[C@@H](COC)C(=O)N[C@@H](Cc1ccccc1)C(=O)[C@@]1(C)CO1 0.217 µM
Cc1ccc(-n2cc(CNCCc3ncc(C)[nH]3)c(-c3ccc(F)cc3)n2)cc1 25.1 µM
